Over roughly 18,000 sequences, “TetR repression strength (sort-seq, GFP reporter)” has its median near 0.23; the highest 2% begin near 0.68. The list shows a part of the results.
These sequences were tested against TetR (class B, Tn10) (UniProt P04483) (assay: TetR repression strength (sort-seq, GFP reporter) (relative to tetO2 = 1); higher = stronger repression). Conditions: E. coli.
Chain of UniProt P04483 (P04483 whole entry): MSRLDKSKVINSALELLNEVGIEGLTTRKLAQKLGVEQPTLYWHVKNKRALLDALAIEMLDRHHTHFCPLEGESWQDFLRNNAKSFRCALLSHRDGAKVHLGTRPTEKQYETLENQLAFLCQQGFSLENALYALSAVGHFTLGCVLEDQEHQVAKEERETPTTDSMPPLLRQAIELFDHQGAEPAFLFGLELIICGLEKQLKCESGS
Outline: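 Three independent transformations of E. coli SIG10-MAX were made with a low-copy plasmid library randomizing eight operator positions between a constitutive promoter and sfGFP, with constitutive TetR. Following 5 h at 37 °C in LB plus 50 µg/mL chloramphenicol, 10^6 cells went through FACS into 13 fluorescence bins, and each bin was sequenced by Illumina. Repression strength was defined as the top bin index plus one minus the read-weighted mean bin, divided by the unaltered operator's value. Averages included only members reaching ≥30 reads in all replicates with a CV ≤0.5.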
Sequence TCCCGCGAAGTACGGGAGA has a TetR repression strength of 0.309. In the case of TCCCGGGCAGTAGGGGAGA, the TetR repression strength is reported as 0.251. For TCCCAAAGAGTATGAGAGA, the TetR repression strength was 0.213. In the case of TCCCAGATAGTCCCTGAGA, the TetR repression strength is reported as 0.479. Sequence TCCCGCGAAGTGCGCGAGA has a TetR repression strength of 0.0393. TCCCAGTCAGTTGGAGAGA was tested, and the TetR repression strength was 0.258. TCCCGGTGAGTGTCAGAGA was tested, and the TetR repression strength was 0.326. Work on TCCCTTAGAGTCGCTGAGA yielded a TetR repression strength of 0.293. TCCCGAGTAGTTAAGGAGA gave a TetR repression strength of 0.21. TCCCCGGTAGTAGTTGAGA showed a TetR repression strength of 0.217. TCCCATCGAGTACATGAGA gave a TetR repression strength of 0.286. In the case of TCCCTATCAGTGGACGAGA, the TetR repression strength is reported as 0.574. Work on TCCCCACTAGTTCAGGAGA yielded a TetR repression strength of 0.288. Sequence TCCCAACAAGTATGCGAGA has a TetR repression strength of 0.235. TCCCCGCAAGTAGCAGAGA was tested, and the TetR repression strength was 0.189. TCCCCTCCAGTTCCCGAGA gave a TetR repression strength of 0.256. For TCCCCCGGAGTCGGCGAGA, the TetR repression strength was 0.0518. Sequence TCCCTATGAGTCAGGGAGA has a TetR repression strength of 0.13. For TCCCGTTGAGTGTCCGAGA, the TetR repression strength was 0.224. Sequence TCCCCACGAGTTGAAGAGA has a TetR repression strength of 0.352. TCCCGGCCAGTCAAAGAGA gave a TetR repression strength of 0.406. With TCCCAAACAGTGGGAGAGA the TetR repression strength was 0.209. In the case of TCCCCGTAAGTGGTGGAGA, the TetR repression strength is reported as 0.0297. TCCCTAGCAGTGAGAGAGA showed a TetR repression strength of 0.376. TCCCTCTTAGTGGAGGAGA was tested, and the TetR repression strength was 0.0194. TCCCGGCGAGTCTGGGAGA showed a TetR repression strength of 0.192. TCCCTTTGAGTTTTTGAGA was tested, and the TetR repression strength was 0.506. Sequence TCCCTCCTAGTGTGCGAGA has a TetR repression strength of 0.101. Work on TCCCAGTTAGTGTGTGAGA yielded a TetR repression strength of 0.145. Sequence TCCCAGTAAGTTAAAGAGA has a TetR repression strength of 0.328. TCCCGTCTAGTGCAGGAGA was tested, and the TetR repression strength was 0.181. TCCCCCAAAGTTGAAGAGA gave a TetR repression strength of 0.164. In the case of TCCCCGCGAGTTGGAGAGA, the TetR repression strength is reported as 0.257. In the case of TCCCTACCAGTGGGTGAGA, the TetR repression strength is reported as 0.0969. Sequence TCCCTTTGAGTAGTTGAGA has a TetR repression strength of 0.193. Sequence TCCCATGTAGTCAGAGAGA has a TetR repression strength of 0.225. Sequence TCCCCTCCAGTTCTTGAGA has a TetR repression strength of 0.421. In the case of TCCCGTTGAGTATTAGAGA, the TetR repression strength is reported as 0.0898. TCCCTGGGAGTTACGGAGA gave a TetR repression strength of 0.204. TCCCTTCAAGTCCTTGAGA showed a TetR repression strength of 0.32. TCCCGTTGAGTCTCAGAGA gave a TetR repression strength of 0.284. TCCCTTCCAGTAACCGAGA gave a TetR repression strength of 0.352. Sequence TCCCTTTTAGTGGGAGAGA has a TetR repression strength of 0.112. Work on TCCCCAGCAGTGGGCGAGA yielded a TetR repression strength of 0.125. Work on TCCCGTCAAGTATGGGAGA yielded a TetR repression strength of 0.415. TCCCTAACAGTGTGTGAGA gave a TetR repression strength of 0.206. TCCCGGGCAGTCCTCGAGA gave a TetR repression strength of 0.909. TCCCTTCTAGTCATCGAGA showed a TetR repression strength of 0.444. Work on TCCCGCAGAGTAGGGGAGA yielded a TetR repression strength of 0.254. In the case of TCCCAAATAGTGTTGGAGA, the TetR repression strength is reported as 0.248. With TCCCATGAAGTGTGGGAGA the TetR repression strength was 0.236. Work on TCCCAGTGAGTGACTGAGA yielded a TetR repression strength of 0.181. TCCCTCGCAGTGGACGAGA showed a TetR repression strength of 0.14. In the case of TCCCTATCAGTCCCAGAGA, the TetR repression strength is reported as 1.18. Work on TCCCGATGAGTTGAAGAGA yielded a TetR repression strength of 0.225. TCCCTAGAAGTCCTAGAGA was tested, and the TetR repression strength was 0.0793. In the case of TCCCGGGCAGTTTCTGAGA, the TetR repression strength is reported as 0.0699. TCCCCATAAGTCGCGGAGA was tested, and the TetR repression strength was 0.0596. TCCCTCTAAGTTGAGGAGA gave a TetR repression strength of 0.0793. TCCCCAGGAGTAGTAGAGA was tested, and the TetR repression strength was 0.272. Sequence TCCCTATCAGTCCATGAGA has a TetR repression strength of 0.348. TCCCAGTGAGTGGTGGAGA gave a TetR repression strength of 0.172. TCCCATGAAGTTTTAGAGA showed a TetR repression strength of 0.156. Work on TCCCATAAAGTGGGGGAGA yielded a TetR repression strength of 0.152. Work on TCCCGCATAGTCTGGGAGA yielded a TetR repression strength of 0.0977. TCCCCCACAGTGAGCGAGA was tested, and the TetR repression strength was 0.408. In the case of TCCCGTAGAGTGTAGGAGA, the TetR repression strength is reported as 0.251. For TCCCCTTGAGTGTAAGAGA, the TetR repression strength was 0.558. In the case of TCCCTGAAAGTGGGAGAGA, the TetR repression strength is reported as 0.368. For TCCCGGGGAGTAGAGGAGA, the TetR repression strength was 0.249. Sequence TCCCAAACAGTTTCCGAGA has a TetR repression strength of 0.477. With TCCCTGCCAGTACTTGAGA the TetR repression strength was 0.0401. For TCCCTTACAGTTTCGGAGA, the TetR repression strength was 0.0478. Work on TCCCAACAAGTAGTCGAGA yielded a TetR repression strength of 0.154. Sequence TCCCGAATAGTCTCAGAGA has a TetR repression strength of 0.185. For TCCCCAGGAGTGTGGGAGA, the TetR repression strength was 0.201. TCCCAGAAAGTCTAGGAGA showed a TetR repression strength of 0.157. Sequence TCCCTTACAGTAACGGAGA has a TetR repression strength of 0. With TCCCCAACAGTTAGGGAGA the TetR repression strength was 0.218. TCCCGGAGAGTGATTGAGA gave a TetR repression strength of 0.272. TCCCAGCCAGTAGTGGAGA showed a TetR repression strength of 0.307. TCCCTTGGAGTGAAGGAGA was tested, and the TetR repression strength was 0.194. For TCCCGGATAGTGATAGAGA, the TetR repression strength was 0.29. TCCCGTTCAGTAGAGGAGA was tested, and the TetR repression strength was 0.219. Work on TCCCAACGAGTTTAAGAGA yielded a TetR repression strength of 0.344. For TCCCGGGGAGTGCTCGAGA, the TetR repression strength was 0.207. TCCCAGCAAGTGGTGGAGA showed a TetR repression strength of 0.241. TCCCTTTGAGTTCCGGAGA gave a TetR repression strength of 0.098. For TCCCCATTAGTCTCGGAGA, the TetR repression strength was 0.192. TCCCGAATAGTGTTTGAGA gave a TetR repression strength of 0.154. Work on TCCCTGAAAGTCCGGGAGA yielded a TetR repression strength of 0.122. TCCCTTATAGTTGCAGAGA gave a TetR repression strength of 0.262. TCCCATTGAGTGGACGAGA showed a TetR repression strength of 0.169. In the case of TCCCCGCAAGTTGTGGAGA, the TetR repression strength is reported as 0.166. For TCCCAAGAAGTTTTCGAGA, the TetR repression strength was 0.261. Work on TCCCAATTAGTGTCGGAGA yielded a TetR repression strength of 0.0518. In the case of TCCCTATTAGTCCGTGAGA, the TetR repression strength is reported as 0.399. With TCCCTTGTAGTGCGGGAGA the TetR repression strength was 0.132. Sequence TCCCCTATAGTTTGCGAGA has a TetR repression strength of 0.0173. TCCCCTTCAGTTCGCGAGA was tested, and the TetR repression strength was 0.191. TCCCAGCTAGTTTTTGAGA was tested, and the TetR repression strength was 0.603. With TCCCCGAGAGTCACGGAGA the TetR repression strength was 0.12.

— a collection of fitness landscapes (doi:10.1038/s41467-024-54723-y)
